# This is one part of the list. At the low end of the ranking the order means little.
# Target: SIX1-Q177R homeodomain (UniProt Q15475)
# Assay: universal protein binding microarray
# Conditions: Universal all-10-mer PBM (8x60K, AMADID 030236), 300 nM GST-tagged protein, Alexa Fluor 488 anti-GST; buffer, salt, pH and temperature not stated; high values mean tight binding; most listed sequences are background and not binding sites; double strand, one strand shown
row,Sequence,binding signal [E-score]
1,ACGAAGTC,-0.11
2,ATAAGGCG,-0.00877
3,TACTACGA,-0.0106
4,TACGCGGA,0.0998
5,CCCTGGTC,-0.0681
6,AAGAGCTG,0.0167
7,GCATAACC,0.0771
8,AGAGACAG,-0.162
9,CATTGAGA,-0.232
10,AGATTGTA,-0.166
11,GGAGCAGA,-0.253
12,CTTAATCC,-0.0606
13,TTATGAAA,-0.0335
14,ACTGCACC,0.141
15,AGCGCCAT,-0.128
16,AGATCGTC,-0.0529
17,ATTTTGGC,-0.192
18,AGCTAATC,-0.333
19,CCCGCTCG,0.0873
20,ATACCTGG,0.0896
21,CCCCGTAG,0.11
22,GCACAATA,-0.0336

row,Sequence,binding signal [E-score]
1,CCGCGGGC,-0.0196
2,CAGCGACA,0.105
3,CACACAGG,0.182
4,GGGATGAC,-0.0267
5,ATTCGACA,0.163
6,CCGGGAAG,-0.131
7,AGGGTAAG,0.152
8,ACCGATGA,0.105
9,GGTTAGGA,0.147
10,GGCTCTGA,-0.21
11,AGAGCCCC,-0.191
12,AGCGAAGC,-0.124
13,GAGGACCC,0.0841
14,CATCTGTC,-0.119
15,CGAAGACG,-0.0924
16,CTTTGGAA,-0.178
17,AAATCCCG,-0.0304
18,GGGTCACC,0.14
19,AAAAGCGG,-0.201
20,TACTATGA,-0.0404
21,CGGCGACC,-0.00942
22,CTGACTGA,-0.2

row,Sequence,binding signal [E-score]
1,AAGATGGG,-0.0813
2,GGCTGCGA,-0.203
3,AGGTACTG,-0.172
4,CTGCCCAC,0.0119
5,GATTTTGC,-0.138
6,GAACAGCA,-0.149
7,CGTACTAC,-0.0725
8,GAGTCCGA,-0.108
9,CACCAGGG,0.284
10,CGGTGACA,0.248
11,AGGTCCGG,-0.0748
12,TACGAGTA,-0.0874
13,AGCACATG,-0.23
14,AGTGTCCA,0.348
15,CTAGAATC,-0.00104
16,CACGGTCA,0.243
17,ACTCTGAG,-0.0232
18,ATTTGAAC,0.0125
19,TGGGCCCA,-0.0815
20,AAGAATAC,-0.059
21,CGCCCACG,0.113
22,ACCTTGTA,0.203

row,Sequence,binding signal [E-score]
1,CCGTACGA,-0.0857
2,GTACAAAA,0.0208
3,GCGAGGCA,-0.0688
4,CTTCAAAA,-0.0349
5,ACTCTACG,0.131
6,ATACAAAA,0.00381
7,TAAAAATA,-0.0578
8,AAGTGGAT,0.023
9,AACCGAGA,-0.125
10,AATCCCAA,-0.185
11,GGAAACAA,-0.00328
12,ACCATTTA,0.0524
13,AATATCTC,-0.171
14,ATTTTTCG,-0.0874
15,CACCACGG,0.226
16,AAATCACA,-0.0284
17,GATTTTAA,-0.14
18,CGTCTCAC,0.0654
19,ATAGCCTC,-0.0423
20,AAAAAAAC,-0.192
21,ACCTAATA,0.0458
22,TTGCGAAA,-0.0519

row,Sequence,binding signal [E-score]
1,AAAGTTCA,-0.185
2,CCAGTCGA,-0.0886
3,AAGTTACC,-0.114
4,TCTGCTCA,-0.0548
5,ATTGGCTC,-0.19
6,CGTCTTGA,-0.0735
7,GGATAACA,0.204
8,ACCCTCGC,0.0865
9,CATCATAG,-0.165
10,CAGTACAG,-0.0112
11,ACGCTAGG,0.0425
12,ATAGGCTA,-0.092
13,CGTCGGAG,0.00628
14,CCCGCAAC,0.123
15,AGTGCCAC,-0.0736
16,CTTATTTA,-0.193
17,CACGTATG,0.149
18,GTCTGAAC,-0.0732
19,CCGCTGCA,-0.208
20,TCACAGGA,-0.0647
21,AGGACTTA,-0.29
22,TAAGCAAA,-0.249
